Whole data set: some 33,000 sequences, median “E-score (-0.5 to 0.5)” near -0.021, cut for the highest 2% near 0.32. The list shows a part of the results.
Biological target: T1, Zap1 (UniProt P47043)
T1 sequence: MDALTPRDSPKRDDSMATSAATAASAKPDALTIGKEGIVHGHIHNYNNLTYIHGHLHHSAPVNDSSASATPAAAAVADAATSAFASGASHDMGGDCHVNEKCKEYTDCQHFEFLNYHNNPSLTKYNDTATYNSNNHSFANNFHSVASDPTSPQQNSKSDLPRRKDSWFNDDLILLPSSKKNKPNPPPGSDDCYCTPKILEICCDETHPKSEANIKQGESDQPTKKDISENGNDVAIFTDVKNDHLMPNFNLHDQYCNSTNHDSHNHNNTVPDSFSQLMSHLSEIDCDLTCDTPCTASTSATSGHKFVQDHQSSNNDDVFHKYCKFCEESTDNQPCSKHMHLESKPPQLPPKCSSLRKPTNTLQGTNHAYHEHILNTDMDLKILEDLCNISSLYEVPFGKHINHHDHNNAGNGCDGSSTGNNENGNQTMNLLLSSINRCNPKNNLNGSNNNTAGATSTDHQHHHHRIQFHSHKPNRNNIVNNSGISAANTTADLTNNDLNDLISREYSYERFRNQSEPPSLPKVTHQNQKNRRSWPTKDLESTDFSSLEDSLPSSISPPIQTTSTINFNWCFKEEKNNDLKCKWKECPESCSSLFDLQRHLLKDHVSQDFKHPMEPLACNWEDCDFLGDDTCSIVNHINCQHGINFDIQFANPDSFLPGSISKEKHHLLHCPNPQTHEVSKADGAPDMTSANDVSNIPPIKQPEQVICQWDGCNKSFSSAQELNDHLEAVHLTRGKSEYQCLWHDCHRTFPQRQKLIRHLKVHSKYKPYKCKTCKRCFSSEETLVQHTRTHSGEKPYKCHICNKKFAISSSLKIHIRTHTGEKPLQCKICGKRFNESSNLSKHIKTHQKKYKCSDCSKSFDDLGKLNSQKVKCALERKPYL
Test: PBM E-score (8-mer binding enrichment) (E-score (-0.5 to 0.5)); higher = stronger / more preferred TF binding; most listed sequences are background and not binding sites
Settings: protein concentration: 200 nM; construct: GST-full length
Procedure, shortened: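 The E-score, a modified Wilcoxon-Mann-Whitney statistic, was computed by the Universal PBM Analysis Suite for every ungapped eight-base word pooled with its reverse complement. Scans behind it were normalised with masliner after bound GST-tagged yeast transcription factors were detected with fluorescent anti-GST. The proteins, at about 100-200 nM, had been applied to universal all-10-mer Agilent arrays made double-stranded by primer extension.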

Row | Sequence | PBM E-score
1 | GCCAGGCC | -0.291
2 | ACCTCGGA | 0.21
3 | AAGCGAGA | -0.245
4 | GCGGCACA | -0.21
5 | GACCCGGC | 0.122
6 | CACGTTGA | -0.0377
7 | GGTTCGGA | 0.0221
8 | GTTTAGCA | -0.0642
9 | ATTTAACC | 0.418
10 | AGCAAACG | -0.0815
11 | ATGAGCGA | -0.18
12 | TCTACAGA | 0.0576
13 | AGATGCGA | -0.104
14 | CTCCGGGA | -0.108
15 | CCAAGAGA | 0.0454
16 | CATCTGCG | -0.131
17 | AGTTGAAA | 0.241
18 | CGTTTTGA | 0.135
19 | CCAGTGGA | -0.0974
20 | CCCTCTCC | -0.247
21 | ATATGTGA | 0.0706
22 | CCGACAAG | -0.0531
23 | CTTCACAC | -0.0233
24 | AGGTTCAA | 0.073
25 | ATAGTAGG | -0.0305

Row | Sequence | PBM E-score
26 | CTGTGCGC | -0.127
27 | GGGCGGAC | -0.135
28 | TACCTAAA | 0.199
29 | GTTGAAAC | 0.191
30 | TGGCACAA | -0.054
31 | ATAACTGA | 0.175
32 | ACATTACT | -0.0581
33 | GAGTAATA | 0.182
34 | AGACTCTC | -0.062
35 | CCATTAAC | 0.292
36 | TCGTGGAA | 0.132
37 | AAGAAGCC | 0.0348
38 | CGAGATTA | 0.0755
39 | AGTGGGAT | 0.00108
40 | CCTTCCCA | 0.0336
41 | AAGACCCA | 0.142
42 | CTAATACA | -0.0935
43 | GCACACGC | -0.0947
44 | AAATAACA | 0.0357
45 | CCAGAAGC | -0.0679
46 | TAATCTAA | 0.17
47 | GATACGGC | -0.222
48 | GCCAAGCA | -0.273
49 | ATAGCCCC | -0.319
50 | CCATCAAA | 0.0846

Row | Sequence | PBM E-score
51 | CAGATCAA | -0.0839
52 | GTATCATA | 0.237
53 | CGGTGAAG | -0.171
54 | ACGTCAGA | -0.185
55 | CTGGACTC | -0.142
56 | AAGCCTTC | -0.214
57 | ACCTTCAA | 0.281
58 | ACGAGCAC | -0.0555
59 | CAAGTCGC | -0.247
60 | CCATCTCA | -0.0981
61 | AGAAATTG | 0.11
62 | CTACTCTC | -0.228
63 | GGCCTATA | 0.0158
64 | CCATCGCA | -0.11
65 | AATTTTAG | 0.0275
66 | AGTGCGGC | -0.237
67 | ATACGCTC | -0.107
68 | CGTTGGTC | -0.0765
69 | CCTTTCGC | 0.0361
70 | CACCGTAG | -0.168
71 | ACTCCTAT | -0.0174
72 | CGGGTACA | 0.122
73 | CGCCCGCG | -0.127
74 | AACAACTA | 0.0139
75 | TCCAGCGA | -0.138

Row | Sequence | PBM E-score
76 | GCAACTAC | 0.0642
77 | CGAGGAGC | -0.26
78 | CACGGGCC | -0.224
79 | TAGAACAA | 0.0748
80 | GCTAGCCA | -0.334
81 | CACGACTA | -0.0134
82 | CTCTATGC | -0.0317
83 | GTTACCGA | 0.268
84 | GTCCGAAC | -0.0294
85 | AGGGGCAC | -0.204
86 | CGGATTAA | -0.00574
87 | CGCGTATA | -0.109
88 | CCGTGGAC | -0.0606
89 | CACAAACG | 0.111
90 | AGTGGACA | 0.0274
91 | AGTTCAGG | 0.0101
92 | CGGGATAA | 0.0579
93 | CACCTCCG | -0.0754
94 | CACTAGAA | 0.0315
95 | CGAATTTC | 0.0202
96 | CCTTTGGC | -0.0594
97 | ATCTAGCG | -0.183
98 | CCACAAGA | 0.0787
99 | CACGACAC | -0.0603
100 | CCGGCGGC | -0.102

Row | Sequence | PBM E-score
101 | AGACACAC | -0.169
102 | ATAGCATG | -0.192
103 | GGATAAAA | 0.108
104 | ATGTTGTC | -0.0552
105 | CGAACCCC | 0.0204
106 | AGGTGCGC | -0.085
107 | CCAACGAA | 0.0692
108 | CTGAACCC | 0.282
109 | AAGTAACC | 0.393
110 | GCGACAAC | 0.178
111 | GAATTCTA | 0.122
112 | GTACTCCA | -0.0554
113 | GAAGTTCC | -0.258
114 | TAGACCGA | 0.019
115 | CCTCATTC | 0.0439
116 | ATGCGTCA | -0.219
117 | GCCTAATA | -0.127
118 | ATCGTATG | 0.00624
119 | CTATAAAA | 0.143
120 | CCGTCCAG | -0.165
121 | TAACGCAA | 0.203
122 | CCGCGTAG | 0.107
123 | GCTAAGCC | -0.276
124 | GTGCCATA | -0.0982
125 | GATGATGC | -0.174

Row | Sequence | PBM E-score
126 | GAACGTTA | -0.217
127 | ACACAGGC | -0.0714
128 | GGATACTA | -0.0401
129 | AAGAGTGG | -0.158
130 | GATCCCCC | -0.428
131 | GGAACCAA | 0.159
132 | CACGGTAA | 0.128
133 | GCGCATAC | 0.0123
134 | GGTCTAGA | -0.0688
135 | CATTACGG | -0.0514
136 | AATTATTA | 0.108
137 | CTCCCCAA | -0.0836
138 | GTTCCCAA | -0.0453
139 | CCGATATA | -2e-05
140 | CTCCTCAA | -0.141
141 | CGCTAGCC | -0.373
142 | CCTTTTCG | 0.186
143 | ACGTCTAA | 0.0735
144 | CTTAGGCC | 0.0131
145 | CCGTTCAG | -0.0239
146 | AGTTGCCG | -0.3
147 | ATCTAAAG | 0.128
148 | CGCAACAC | -0.0575
149 | GCGCAACC | 0.259
150 | AGTCTCAT | -0.0192

Row | Sequence | PBM E-score
151 | CTGTATTA | 0.132
152 | ACCGCCCG | 0.033
153 | CACATGTA | -0.0311
154 | CCCAGTTA | -0.055
155 | CGTTGGTA | -0.00272
156 | ATAATATC | -0.00752
157 | CCCAGTGA | 0.00661
158 | GACTTTGA | -0.139
159 | AAGTCGGG | -0.122
160 | CTCGACAC | -0.117
161 | CTAGGGAA | -0.037
162 | CTATTGGA | 0.0435
163 | CCGTAGGC | -0.309
164 | GACAGCCC | -0.0621
165 | ACATGCAC | 0.0283
166 | CTGATTAC | 0.213
167 | GGATAGTA | 0.0149
168 | GTCACCGA | 0.131
169 | TATTAGCA | 0.0761
170 | GAGATGAC | -0.0731
171 | CGACTCCA | -0.122
172 | GGTCGATA | -0.0635
173 | CGGACATA | 0.0482
174 | ATACGGCC | -0.0305
175 | CCCCATCG | -0.0609

Row | Sequence | PBM E-score
176 | GCCGATCC | -0.287
177 | GTGGTGCA | -0.0414
178 | GCCAAATA | 0.0774
179 | CCATCTGC | -0.0685
180 | AACCAGAC | 0.155
181 | AGTGCAAC | 0.0909
182 | AAACGCAA | -0.0427
183 | GTGCTCGA | -0.214
184 | GTGTGGTA | 0.191
185 | CGCAATAC | 0.208
186 | GAGCATCC | -0.244
187 | CTACGCAA | -0.113
188 | CCTAGCAG | -0.0321
189 | GTTGGTTA | 0.316
190 | AGTCTTAT | -0.115
191 | AGTTTACG | 0.0423
192 | AGTGATGG | 0.00854
193 | CACCTGGG | -0.0725
194 | AGCCACGA | -0.0658
195 | AACTATGA | -0.00628
196 | GAACGTCC | -0.00269
197 | TAGAAAAA | -0.0129
198 | ATGGTAAC | 0.392
199 | CCATCGAC | -0.00182
200 | AGGATAAC | 0.0559

Row | Sequence | PBM E-score
201 | ATCGATAC | 0.0699
202 | ACTTAGTG | -0.12
203 | AGGCCATA | 0.043
204 | GCCACGTA | -0.179
205 | CTATCTGC | -0.25
206 | GGGAAATA | -0.122
207 | CCCGCAGC | -0.228
208 | CAACGGCA | -0.0472
209 | GGCAGTTA | -0.0581
210 | GATCGCAA | 0.121
211 | CATGCTTC | -0.0333
212 | CGCGGTCC | -0.0365
213 | AAATGAAC | 0.0973
214 | GTCATTAA | 0.275
215 | GACAGATA | 0.0964
216 | CAGCTACG | -0.188
217 | GGCCAGAA | 0.00754
218 | CGCTTCGA | -0.261
219 | CAGACGAA | 0.0533
